PubChem BioAssay AID485281 (National Center for Advancing Translational Sciences (NCATS), 2010)
Out of some 350,000 compounds screened, about 260 (0.074%) were called active. Inconclusive means that the source gave no clear call. Such entries were picked first, then a sample of the others. Calls follow the shape of the dose curve; as a rule, active = well fitted inhibition curve with a large enough effect; inconclusive = small, poorly fitted or top-dose-only effect; inactive = no such curve, though single readings can be large or run the other way. Potencies beside an inconclusive call are fits to weak or partial responses and may not hold up.

Biological target: Ferritin light chain (Equus caballus) (UniProt P02791)
Assay: qHTS Assay for Identification of Novel General Anesthetics; also: nearly all actives have a fitted effect of over 20% in size
Settings: apoferritin/1-aminoanthracene competitive binding, fluorescence; series mostly up to 77.5 µM
Procedure, shortened: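 Horse-spleen apoferritin (10 uM) in 50% saturated 1-aminoanthracene in PBS was incubated 10 min at room temperature with compound. Fluorescence (ex 380, em 535 nm) was normalized to free and bound 1-AMA, with concentration-response fitted by a four-parameter Hill equation.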
Potency is read from the fitted curve at half-maximal effect; tags tell the direction and shape of the fitted curve.

Sequence of UniProt P02791 (P02791 whole entry, looked up): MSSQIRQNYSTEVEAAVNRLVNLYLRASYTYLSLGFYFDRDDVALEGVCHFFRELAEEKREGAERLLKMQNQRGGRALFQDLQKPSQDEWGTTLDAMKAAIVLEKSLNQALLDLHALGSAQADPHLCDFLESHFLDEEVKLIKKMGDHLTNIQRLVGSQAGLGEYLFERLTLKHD

Potency, inconclusive:
O=C(C1CCN(S(=O)(=O)c2cccc3cccnc23)CC1)N1CC=C(c2ccccc2)CC1 50.1 µM [inhibitor, partial curve, poor fit]
Cc1nn(CC(=O)NCc2ccccc2)c(=O)c2ccccc12 56.2 µM [inhibitor, partial curve]
COc1ccc(CN2CCCC(C(=O)c3ccc(Cl)cc3)C2)cc1Cn1cccn1 (stereo not given) 22.4 µM [inhibitor, partial curve]
COc1ccccc1/C=C1\NC(=S)N(CC2CCCO2)C1=O (stereo not given) 31.6 µM [inhibitor, partial curve]
C[C@H](NC(N)=O)C(=O)Nc1ccc(OCc2ccccc2)cc1 14.1 µM [inhibitor, partial curve]
Oc1ccc(Cl)cc1CNc1nccs1 25.1 µM [inhibitor, partial curve]
CCNc1nc(-c2ccc(Cl)cc2)cs1 15.8 µM [inhibitor, partial curve]
COCc1cc(C)nc(N/N=C/c2ccc(-c3ccc(Cl)cc3[N+](=O)[O-])o2)c1C#N 25.1 µM [inhibitor, partial curve]
Cc1cc(S(=O)(=O)NC2CCCCC2)c(C)s1 22.4 µM [inhibitor, partial curve]
COc1cccc(-c2nnc(SCC(=O)N3CC(C)CC(C)C3)o2)c1 (stereo not given) 39.8 µM [inhibitor, partial curve]
Cc1ccc[n+](C2C(c3ccc([N+](=O)[O-])cc3)C(C#N)=C([S-])NC2(O)C2CC2)c1 (stereo not given) 25.1 µM [inhibitor, partial curve]
O=C(NCCCSc1ccccc1)c1cccnc1 20 µM [inhibitor, partial curve]
O=C(CN1C(=O)S/C(=C/c2cccn2-c2ccc(O)cc2)C1=O)N1CCCC1 39.8 µM [inhibitor, single point]
O=C(NC12CC3CC(CC(C3)C1)C2)c1cccc(OC(F)F)c1 28.2 µM [inhibitor, partial curve]
COc1ccc(OCC(=O)N/N=C2\CCCc3ccccc32)cc1 50.1 µM [inhibitor, single point]
Cc1ccc(-n2nnnc2SCc2ccccn2)cc1C 31.6 µM [inhibitor, partial curve]
Cc1ccc(CNC(=O)C(=O)NCC(c2ccco2)S(=O)(=O)c2ccc(C)cc2)cc1 (stereo not given) 31.6 µM [inhibitor, single point]
CCCC(C)C(=O)Nc1ccc(Cl)cc1Cl (stereo not given) 20 µM [inhibitor, partial curve]
COCCCn1c(SCC(=O)n2c(C)c(C)c3ccccc32)nnc1-c1ccoc1C 35.5 µM [inhibitor, partial curve]
O=C(CCn1nnc2ccccc21)N/N=C\Cc1ccccc1 22.4 µM [inhibitor, partial curve]
O=C(c1cnc2c(c1)COc1ccccc1-2)c1ccccc1O 17.8 µM [inhibitor, partial curve]
CSc1ccc(S(=O)(=O)NCc2ccccc2)cc1 20 µM [inhibitor, partial curve]
NCCc1nnc(SCc2c(F)cccc2Cl)o1 39.8 µM [inhibitor, partial curve]
OCC1OC(c2ccc3c(c2)OCO3)C=CC1Oc1cc(Cl)cc(Cl)c1 (stereo not given) 6.31 µM [inhibitor, single point]
COc1cnn(-c2cc(Oc3ccc(C)cc3)ncn2)c(=O)c1Cl 50.1 µM [inhibitor, single point]
CC1CCCN(C(=O)CSc2nc3ccccc3o2)C1 (stereo not given) 28.2 µM [inhibitor, partial curve]
CC(C)c1cnc2c(c1SCC(=O)c1ccccc1)c(=O)n(C)c(=O)n2C 50.1 µM [inhibitor, single point]
CCN(CC)C(=O)C12CC3CC(CC(Br)(C3)C1)C2 28.2 µM [inhibitor, partial curve]
CC(C)(C)NC(=O)CSc1nc(-c2ccc(F)cc2)cc(C(F)(F)F)n1 14.1 µM [inhibitor, full curve]
Cc1ccc(S(=O)(=O)Nc2ccc3c(c2)OCCO3)cc1C 35.5 µM [inhibitor, partial curve]
Cc1ccc(C)c(N2CCN(S(=O)(=O)c3ccc4[nH]c(=O)c(=O)[nH]c4c3)CC2)c1 20 µM [inhibitor, partial curve]
CN(C)c1ccc(C(=O)OCC(=O)NCCC2=CCCCC2)cc1 20 µM [inhibitor, partial curve]
Cc1ccccc1CS(=O)(=O)c1cnc2ccccc2n1 39.8 µM [inhibitor, partial curve]
O=C(CCC1CCCC1)NCc1cccs1 31.6 µM [inhibitor, partial curve]
CCC(C(=O)Nc1nccs1)c1ccccc1 (stereo not given) 28.2 µM [inhibitor, partial curve]
Cc1ccc(-c2nc(P(=O)(c3ccccc3)c3ccccc3)c(N3CCOCC3)o2)cc1 20 µM [inhibitor, partial curve]
C=C(C)CSCc1nc2ccccc2[nH]1 28.2 µM [inhibitor, partial curve]
Nc1cc(=O)[nH]c(SCc2cccc(Cl)c2)n1 15.8 µM [inhibitor, partial curve]
CCn1c(SCC(=O)c2ccc(Cl)s2)nnc1-c1cccs1 35.5 µM [inhibitor, partial curve]
COc1ccc(N(Cc2ccccc2)N=O)cc1 31.6 µM [inhibitor, partial curve]
COC(=O)c1cccc(NC(=O)c2cc3ccccc3o2)c1 20 µM [inhibitor, partial curve]
CC1CC(OCC(O)CN2CCN(Cc3ccccc3)CC2)CC(C)(C)C1 (stereo not given) 28.2 µM [inhibitor, partial curve]
CCn1cc(S(=O)(=O)c2ccc(C)cc2)c(=O)c2cc(OC)ccc21 31.6 µM [inhibitor, single point]
CCN(CC)S(=O)(=O)c1cccc(-c2nnc(SCCCC(=O)c3ccc(F)cc3)o2)c1 31.6 µM [inhibitor, partial curve]
Cc1ccc(Cc2cnc(NC(=O)c3ccco3)s2)cc1 25.1 µM [inhibitor, partial curve]
NC(=O)CC(NC(=O)c1cccc(Br)c1)c1ccc(NC2CCCCCCC2)c([N+](=O)[O-])c1 (stereo not given) 20 µM [inhibitor, partial curve]

Potency, inactive:
O=[N+]([O-])c1ccc(O)c(/C=N\N=C2c3ccccc3-c3ccccc32)c1
Cc1ccc(COc2ccsc2-c2n[nH]c(=S)n2C)cc1
Cc1cc(OC(C)C(=O)NC(Cc2c[nH]c3ccc(O)cc23)C(=O)O)c2c(C)c(C)c(=O)oc2c1 (stereo not given)
CC(C)C[C@@H](C(=O)N[C@@H](Cc1c[nH]c2ccccc12)C(N)=O)N1C[C@]2(CCCN2C(=O)[C@H](Cc2ccccc2)NC(=O)[C@H](Cc2ccccc2)NC(=O)[C@H](CCC(N)=O)NC(=O)[C@H](CCC(N)=O)NC(=O)[C@@H]2CCCN2C(=O)[C@H](CCCCN)NC(=O)[C@@H]2CCCN2C(=O)[C@@H](N)CCCNC(=N)N)CC1=O
Cc1c(Cl)cccc1-n1nc(C)c2c(C)cc(=O)n(CC(=O)N3CCCc4ccccc43)c21
C/C(=N\NC(=S)NCc1ccccc1)c1ccc(C(C)(C)C)cc1
CC(=O)c1ccc(NS(=O)(=O)c2cccc(C(=O)Nc3ccccc3C(=O)O)c2)cc1
Cn1ncc2c(Nc3ccc(Cl)c(Cl)c3)ncnc21
CCOC(=O)c1cccc(OCC(O)CNCCOc2ccccc2F)c1 (stereo not given)
Cc1cc(Oc2ccccc2)nc(-c2ccccc2)n1
COc1cc(/C=N/n2c(-c3ccccc3)n[nH]c2=S)cc(OC)c1O
COC(=O)c1ccc(NC(=O)N2CCN(c3nnc(C)c4c(C)n(-c5ccccc5)nc34)CC2)cc1
O=C(Nc1cccc(C(F)(F)F)c1)C1CCN(S(=O)(=O)c2ccc(N3CCCC3=O)cc2)CC1
Cc1c(-c2nnc(SCC(=O)Nc3ccc(Br)cc3)o2)nnn1-c1ccc(F)cc1
Cc1cccc(C2=NN(c3ccc(Br)cc3)[C@@H](C(=O)N3CCOC3=O)[C@@H]2c2ccc(F)cc2)c1
COC(=O)c1ccc(Cc2ccc(C(=O)OC)o2)o1
CCCC(=O)Nc1ccc2c(c1)C(=O)N(CCC(=O)O)C2=O
CCOc1cc(/C=C2\SC(=S)N(N3CCOCC3)C2=O)ccc1O
CC(=O)c1ccc(NC(=O)CSc2c(C(C)C)cnc3c2c(=O)n(C)c(=O)n3C)cc1
COc1ccc(N(C)C(=O)c2cc3c(s2)-c2c(C)cccc2OC3)c(OC)c1
COc1ccc(CC(=O)O/N=C(\N)Cc2ccc([N+](=O)[O-])cc2)cc1
O=C1NC2(CCCCCC2)C(=O)N1Cc1ccc(F)cc1Cl
Cn1cccc1C(=O)C(=O)Nc1ccc(F)c(F)c1
CCCNC(=O)/C=C/c1ccc(C(C)C)cc1
